Test results reported in patent publication US7144862B2, “Orally administered peptides to ameliorate atherosclerosis” (The Regents of the University of California, priority 2000, dated 2006).
Non-standard residues stand in square brackets, D forms with d. Residues, ends and D or L forms follow the SMILES beside them.

Test system: human artery wall cell cocultures
Test: Lipoproteins from mice given peptide by gavage tested in human artery wall cell cocultures (monocyte chemotactic activity)
Conditions: 50 micrograms by gavage
Experimental: Groups of LDL receptor-deficient mice (n=3) were administered the D-peptides or the saline vehicle by gavage. Each animal was given 100 μl of saline, 100 μg/100 μl of peptide D-2F or peptide D-37pA. Blood was collected from retroorbital sinus under mild anesthesia 17 hrs later. LDL was isolated from plasma by FPLC. Cocultures of artery wall cells were incubated with medium alone (NO ADDITION), control LDL from normal subjects (LDL), LDL plus control HDL from normal subjects (+HDL). Other cocultures were incubated with murine LDL following gavage with saline (SALINE LDL), with D-2F (D-2F LDL) or with D-37pA peptide (D-37pA LDL). […] This conditioned medium was collected and analyzed for monocyte chemotactic activity. […]
FIG. 22A: Peptides L-4F and D-4F were radiolabeled using the Iodo-bead reagent and were administered by oral gavage to LDL receptor null mice (100 μl of saline containing 100 μg of unlabeled peptide plus ^125I-labeled peptide with specific activity of 11×10^6 cpm per μg peptide per animal, n=3). Blood was collected after 4 hrs, plasma was separated, delipidated and analyzed by reverse phase HPLC as described herein. […] On the right, mouse LDL (mLDL) was isolated from mice receiving saline (Saline Rx) or L-4F (L4F Rx) or D-4F (D-4F Rx) and was added at 100 μg cholesterol/ml to the artery wall cell cocultures without HDL and monocyte chemotactic activity determined. […]

CC(=O)N[C@H](CC(=O)O)C(=O)N[C@H](Cc1c[nH]c2ccccc12)C(=O)N[C@H](CC(C)C)C(=O)N[C@H](CCCCN)C(=O)N[C@H](C)C(=O)N[C@H](Cc1ccccc1)C(=O)N[C@H](Cc1ccc(O)cc1)C(=O)N[C@H](CC(=O)O)C(=O)N[C@H](CCCCN)C(=O)N[C@@H](C(=O)N[C@H](Cc1ccccc1)C(=O)N[C@H](CCC(=O)O)C(=O)N[C@H](CCCCN)C(=O)N[C@H](Cc1ccccc1)C(=O)N[C@H](CCCCN)C(=O)N[C@H](CCC(=O)O)C(=O)N[C@H](Cc1ccccc1)C(=O)N[C@H](Cc1ccccc1)C(N)=O)C(C)C [Peptide D-5F, Ac-D-W-L-K-A-F-Y-D-K-V-F-E-K-F-K-E-F-F-NH2] (Ac-[dD][dW][dL][dK][dA][dF][dY][dD][dK][dV][dF][dE][dK][dF][dK][dE][dF][dF]-NH2)
protection of control LDL by mouse HDL (HDL taken after 3 hours): as protective against LDL-induced monocyte chemotactic activity production by human artery wall cells as a control HDL | protection of control LDL by mouse HDL (LDL receptor knockout mice, HDL taken 1.5 hours after gavage): did not protect control (cont.) LDL from modification
